Compound in the experiment: C=CC(=O)Nc1cccc(Nc2nc(NC3CCC(N(C)C)CC3)nc3c2ncn3C(C)C)c1 [WZ3105]
Put plainly: Viability of human cancer cell lines after 72 h of drug (GDSC screen). The following applies: top dose inferred. As to the method: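 Human cancer cell lines in 384-well plates, medium with 10% serum, drug for 72 h over a 256-fold dose range (nine 2-fold or five 4-fold steps up to the top dose). Adherent lines were fixed and stained with the nucleic acid dye Syto60, suspension lines read with resazurin; signal relative to control wells, capped at 0 and 100%. One two-parameter sigmoid per drug and line, fitted in a mixed model over all curves with the slope shared within a line.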

Lines with a small IC50 respond at low doses; fits outside the tested doses are given as limits. The AUC spans the tested range (256-fold, ending at the top dose) of the same fit; it is 1 without any effect and falls as sensitivity rises. A top dose marked as inferred was derived from the fitted curves, not read from the paper.

One may read the IC50 as the concentration that gives 50% inhibition. In the case of “NCI-H2172 (non-small cell lung carcinoma, adherent, top dose 1.28 µM)”, the AUC is 0.979 and the IC50 is greater than 1280 nM.

Take “NCI-H2196 (small cell lung carcinoma, adherent, top dose 1.28 µM)”: the AUC stood at 0.74 and the IC50 came to 407 nM.

In the case of “NCI-H2227 (small cell lung carcinoma, semi-adherent, top dose 1.28 µM)”, the AUC was 0.709 and the IC50 was 338 nM.

For the cell line “NCI-H2228 (lung adenocarcinoma, adherent, top dose 1.28 µM)”, the AUC amounted to 0.879 and the IC50 is greater than 1280 nM.

In the case of “NCI-H2291 (lung adenocarcinoma, adherent, top dose 1.28 µM)”, the AUC worked out at 0.983 and the IC50 is greater than 1280 nM.

“NCI-H2342 (lung adenocarcinoma, adherent, top dose 1.28 µM)”: the AUC was 0.986 and the IC50 is greater than 1280 nM.

Turning to “NCI-H2347 (lung adenocarcinoma, adherent, top dose 1.28 µM)”, the AUC came to 0.816 and the IC50 was determined as 913 nM.

With “NCI-H2405 (lung adenocarcinoma, adherent, top dose 1.28 µM)”, the AUC was found to be 0.88 and the IC50 is greater than 1280 nM.

For “NCI-H2444 (non-small cell lung carcinoma, adherent, top dose 1.28 µM)”, the AUC worked out at 0.988 and the IC50 was greater than 1280 nM.

With “NCI-H2452 (mesothelioma, adherent, top dose 1.28 µM)”, the AUC was 0.981 and the IC50 is greater than 1280 nM.

Take “NCI-H3122 (lung adenocarcinoma, adherent, top dose 1.28 µM)”: the AUC was 0.662 and the IC50 came to 229 nM.

“NCI-SNU-1 (stomach, suspension, top dose 1.28 µM)”: the AUC worked out at 0.8 and the IC50 stood at 646 nM.

In the case of “NCI-SNU-5 (stomach, suspension, top dose 1.28 µM)”, the AUC stood at 0.987 and the IC50 is greater than 1280 nM.

As to “NCI-SNU-16 (stomach, suspension, top dose 1.28 µM)”, the AUC was 0.926 and the IC50 was greater than 1280 nM.

As for “NEC8 (testis, adherent, top dose 1.28 µM)”, the AUC is 0.926 and the IC50 is greater than 1280 nM.

As for “NH-12 (neuroblastoma, adherent, top dose 1.28 µM)”, the AUC is 0.935 and the IC50 is greater than 1280 nM.

With “NKM-1 (acute myeloid leukaemia, suspension, top dose 1.28 µM)”, the AUC amounted to 0.32 and the IC50 was determined as 24.7 nM.

Regarding “NMC-G1 (glioma, adherent, top dose 1.28 µM)”, the AUC was 0.898 and the IC50 was greater than 1280 nM.

Take “NOMO-1 (acute myeloid leukaemia, suspension, top dose 1.28 µM)”: the AUC is 0.545 and the IC50 was determined as 108 nM.

For “NOS-1 (osteosarcoma, adherent, top dose 1.28 µM)”, the AUC was 0.807 and the IC50 amounted to 845 nM.

With “NTERA-2 cl.D1 (testis, adherent, top dose 1.28 µM)”, the AUC was 0.87 and the IC50 worked out at 1170 nM.

As to “NU-DUL-1 (B-cell lymphoma, suspension, top dose 1.28 µM)”, the AUC is 0.498 and the IC50 came out at 79.3 nM.

For the cell line “NUGC-3 (stomach, adherent, top dose 1.28 µM)”, the AUC is 0.903 and the IC50 was greater than 1280 nM.

Regarding “NUGC-4 (stomach, adherent, top dose 1.28 µM)”, the AUC was 0.952 and the IC50 was greater than 1280 nM.

For the cell line “NY (osteosarcoma, adherent, top dose 1.28 µM)”, the AUC is 0.959 and the IC50 is greater than 1280 nM.

Consider “OACM5-1 (oesophagus, semi-adherent, top dose 1.28 µM)”, for which the AUC amounted to 0.627 and the IC50 is 187 nM.
